Assay results published in PubChem BioAssay AID743279 (National Center for Advancing Translational Sciences (NCATS), 2014).
In all, about 360,000 compounds went through this assay and about 17,000 (4.7%) were called active. The shares of active, inactive and inconclusive entries below differ from those in the screen. Rule as the data show it: active = activity change below about -50%; inconclusive = mostly about -30% to -49%; inactive = weaker than that.

Experiment: qHTS for Inhibitors of Inflammasome Signaling: IL-1-beta AlphaLISA Primary Screen
Details: THP-1 LPS/ATP IL-1B secretion, 16 h; at 57.5 µM, stronger effect = lower value
Procedure, shortened: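 Secreted IL-1B measured by AlphaLISA bead assay after 16 h compound exposure of THP-1 cells; compounds (final up to 57.5 uM) added 1 h before LPS (250 ng/mL) and ATP (1.25 mM) stimulation; lower signal means less secretion.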
% is scaled to controls: 0 for no effect and ±100 for the full control effect.

Activity change, inactive:
O=C(CC(Nc1ccc(F)cc1)C(=O)OCC(=O)c1cccs1)c1ccccc1 (stereo not given) 0%, CCOC(=O)C1CCN(C(=O)Cn2c(=O)c3cccn3c3cccnc32)CC1 6.4%, O=C(CCNC(=O)c1ccc(Cl)cc1)NCc1ccco1 -0.122%, COc1ccccc1NC(=O)c1cccc(NC(=O)c2ccco2)c1 -21.8%, CC(C)(C)NC(=O)C1CCCN(S(=O)(=O)c2cccc3cccnc23)C1 (stereo not given) 35.9%, COC(=O)c1ccc(NC(=O)CSc2nnc(-c3ccccc3Br)n2-c2ccccc2)cc1 58.6%, NC(=O)c1cccc2c1-c1ccccc1/C2=N/NC(N)=S -5.47%, Cc1cccc(C)c1-n1nnnc1-c1nc2cc(Br)ccc2[nH]c1=O -3.65%, O=C(COc1ccc(Br)cc1CO)Nc1ccc(S(=O)(=O)N2CCCCC2)cc1 -19.2%, COc1ccc(S(=O)(=O)N2CCN(C)CC2)c(C)c1 -5.01%, O=C(COC(=O)C1(c2ccc(Cl)cc2)CCCC1)NCc1ccco1 -5.78%, O=C(Nc1cccc(C(F)(F)F)c1)OCCN1CCN(Cc2ccccc2)CCC1=O -16.8%, Cc1cc(C)c(S(=O)(=O)N2CCCCC2)c(C)c1N(C)S(=O)(=O)c1ccc(Cl)cc1 -5.61%, CC(C)(C)c1cc(C(=O)N/N=C/c2ccc(-c3ccccc3[N+](=O)[O-])o2)n[nH]1 9.64%, CN1CCN(CC(=O)c2ccccc2F)CC1 1.2%, NS(=O)(=O)c1ccc(CCNc2cc(=O)n(Cc3ccc(F)cc3)c(=O)[nH]2)cc1 -4.45%, Cc1ccc(C(=O)Nc2ccccc2C(=O)O)cc1S(=O)(=O)NC1CCCCC1 22.6%, CCN1C(=O)/C(=C2\SC(N3CCOCC3)=NC2=O)c2ccccc21 5.56%, O=C(O)C1(O)C[C@@H](O)C(O)[C@H](O)C1 (stereo not given in full) 5.15%, COc1ccc(S(=O)(=O)NC(=O)C2(C)CCN2C(=O)Cc2ccccc2Cl)cc1 (stereo not given) -24.4%, COc1cc(-c2noc(CCC(=O)NC3CCCC3)n2)cc(OC)c1OC 2.11%, O=C(COC(=O)CC12CC3CC(CC(Br)(C3)C1)C2)NC(=O)NCc1ccco1 -0.807%, c1ccc(-c2csc(N3CCSCC3)n2)cc1 8.83%, CC(C)(C)[C@@H]1C=C(C(=O)O)O[C@H](OCc2ccc(CO)cc2)C1 -5.2%, COc1cccc(-c2cc3nc4c(c(N5CCC6(CC5)OCCO6)n3n2)CCC4)c1 -2.22%, CC(C)(C#N)Nn1cnnc1 0%, O=C(NCc1cc(Cl)cc(Cl)c1)c1ccc2nc(COCCO)[nH]c2c1 0.826%, COc1ccc2nc3n(c(=O)c2c1)-c1ncccc1C(=O)NC3C (stereo not given) 26.2%, COCCCNC(=S)NC(=O)c1ccc(C)cc1 0%, Cc1ccc(S(=O)(=O)N(C)C)cc1NC(=S)N(C)C1CCN(C)CC1 14.5%

Activity change, inconclusive:
COc1ccc(C2CC(c3cccc(C(F)(F)F)c3)=NN2c2ccc(S(N)(=O)=O)cc2)cc1 (stereo not given) -47.2%, CCCCCOP(=O)(c1ccccc1)c1ccccc1 -40%, O=[N+]([O-])c1cccnc1Oc1ccc(OCc2ccccc2)cc1 -38.6%, COc1ccc(C(CCN2CCOCC2)c2c(OC)cc(OC)c3c(-c4ccccc4)cc(=O)oc23)cc1 (stereo not given) -30.6%, OC(c1ccc(Cl)cc1)c1ncc(-c2ccc(Oc3ccccc3)cc2)[nH]1 (stereo not given) -45%, CCOc1ccc2oc(C(=O)OCC(=O)N(CC(C)C)c3c(N)n(Cc4ccccc4)c(=O)[nH]c3=O)c(C)c2c1 -44.3%, COc1ccc(-c2nnc(SC(C)C(=O)Nc3cccc(Cl)c3)o2)cc1 (stereo not given) -41.1%, O=C1/C(=C/c2ccccc2)Nc2ccccc21 -42.3%, O=C(NNC(=S)Nc1cccc(C(F)(F)F)c1)c1ccccc1Cl -36.3%, CC(C)(C)c1ccc(S(=O)(=O)N(CCCN2CCOCC2)Cc2cccs2)cc1 -32.7%, Cc1c(CCC(=O)NCCCn2ccnc2)c(=O)oc2c(C)c3oc4c(c3cc12)CCCC4 -44.9%, COc1cccc(-c2nn(C)c3sc(C(=O)NCc4ccccn4)cc23)c1 -45.9%, O=C(CSc1nc2nn(-c3ccccc3)c(=O)c-2c2n1CCCCC2)c1ccc(OC(F)F)cc1 -42%, CCOC(=O)C1=C(COC(=O)CCOc2ccc(C)cc2)NC(=O)NC1C (stereo not given) -49.4%, O=C(CN(C(=O)c1csnn1)c1ccc(F)c(Cl)c1)NCc1ccccc1 -35.5%, CCN(CC)S(=O)(=O)c1ccc(N2CCOCC2)c(NC(=O)c2ccc(NC(C)=O)cc2)c1 -36.6%, CCOC(=O)C1=C(c2ccccc2)OC(N)=C(C#N)C1c1ccc(Br)s1 (stereo not given) -38.1%, Cc1ccc(-c2ccc(/C=N/n3cnnc3)o2)cc1 -39.7%, C=CCn1c(SCC(=O)NCc2ccc3c(c2)OCO3)nc2scc(-c3ccccc3)c2c1=O -41.8%, O=C(N/N=C\c1cn[nH]c1-c1ccc(Cl)cc1)c1cccs1 -35.4%, O=C(CCC(=O)N1CCN(S(=O)(=O)c2ccccc2)CC1)c1ccc(Br)cc1 -35.5%, O=C(Nc1ccccc1)N(Cc1ccc2c(c1)OCO2)Cc1nc2ccccc2c(=O)[nH]1 -41.5%, OC(COC(c1ccccc1)c1ccccc1)CN1CCN(c2ccccn2)CC1 (stereo not given) -39.6%, Cc1ccc(C)c(Oc2cc(NC(=O)CCCn3nc(C)c([N+](=O)[O-])c3C)cc([N+](=O)[O-])c2)c1 -36.8%, COC(=O)c1cc(NC(=O)c2cc(-c3ccccc3Cl)oc2C(F)(F)F)ccc1N1CCOCC1 -32.9%, S=C(Nc1ccc(Cl)cc1Cl)N1CCCCC1 -30.8%, CC(=O)OCC(=O)[C@@]1(O)CC[C@H]2[C@@H]3CCC4=CC(=O)C=C[C@]4(C)[C@@]3(Cl)[C@@H](Cl)C[C@@]21C -40.1%, Cc1cc(O)c(C(C)C)cc1NC(=O)c1cccc(Cl)c1 -32%, Cc1ccc(NC(=O)c2ccc(NS(=O)(=O)c3cccc4cccnc34)cc2)cc1 -34%, COc1ccc(Nc2cc(C(=O)N3CCc4ccccc4C3)c3ccccc3n2)c(OC)c1 -30.7%, O=C(C1CCN(c2ncnc3c2nc2n3CCCCC2)CC1)N1CCN(c2cccc(Cl)c2)CC1 -32.5%, Cc1ccc(Cl)cc1N1CCN(C(=O)C2(S(=O)(=O)c3ccc(Cl)cc3)CC2)CC1 -35.6%, c1ccc(-c2nc(NCCCN3CCOCC3)c3ccccc3n2)cc1 -49.6%, O=C(C(=O)N1CCc2ccccc2C1)c1cn(CC(=O)N2CCCCC2)c2ccccc12 -32.3%, O=C(O)CSc1nc(-c2cccs2)cc(C(F)(F)F)n1 -49.1%, C=CCNCCOc1ccccc1-c1ccccc1 -49.7%, COc1ccccc1OCC(=O)NCCSCc1ccc(Cl)cc1 -37.8%, CCOC(=O)CSc1nsc(SCC(=O)OCC)c1C#N -41.1%, Cc1cc(C)c(S(=O)(=O)N2CCCCC2)cc1N(C)S(=O)(=O)c1ccc(Cl)cc1 -39%, CC(=O)c1cccc(NC(=O)CN2CCc3cc4c(cc3C2C)OCCCO4)c1 (stereo not given) -38.2%, OC(COc1ccccc1)CN1CCN(C(c2ccccc2)c2ccccc2)CC1 (stereo not given) -35.2%, OCCN1CCN(CC/C=C2/c3ccccc3Sc3ccc(C(F)(F)F)cc32)CC1 -42.5%, O=[N+]([O-])c1ccc(CSC2=NCCN2)cc1 -43.6%, Cc1cnc(N2C(=O)c3ccc([N+](=O)[O-])cc3C2=O)s1 -31.5%, CCOc1ccc(Oc2c(/C=N/NC(=O)COc3ccccc3OC)c(C)nn2-c2ccccc2)cc1 -35.5%, CC(C)c1nc(N2CCN(C(=O)c3ccco3)CC2)c(C#N)c2c1COC(C)(C)C2 -49.3%

Activity change, active:
C=CC[C@H](CC(=O)N(CCO)Cc1ccccc1)C(=O)N[C@@H](COC(=O)[C@@H](CC=C)Cc1ccc(F)cc1)Cc1ccccc1 -67.6%, CSc1ccc(CCNC(=O)C2CCCN(c3ncnc4c3nc3n4CCCCC3)C2)cc1 (stereo not given) -68.6%, Clc1ccc(OCc2nc3ccccc3[nH]2)cc1 -51.4%, Cc1ccc(NC(=S)NC2CC3CCCC(C2)N3Cc2cccs2)cc1 (stereo not given) -74.1%, Cc1ccc(S(=O)(=O)c2ccc([N+](=O)[O-])o2)cc1 -99.6%, Cc1ccc(S(=O)(=O)N2CCN(C(=O)CCCOc3ccc(Cl)cc3C)CC2)cc1 -62.1%, Cc1ccc(S(=O)(=O)N2C[C@H]3C(=O)C[C@@H](c4cccs4)N(S(=O)(=O)c4ccc(C)cc4)[C@H]3C[C@H]2c2ccccc2)cc1 -57.7%, O=C(Nc1cccc(NC(=O)c2cccs2)c1)c1ccc2c(c1)OCO2 -77.4%, O=C(Nc1ccncc1)Nc1cccc(F)c1 -79.8%
